{"source": "PubChem BioAssay AID651567", "about": "(National Center for Advancing Translational Sciences (NCATS), 2012)", "note": "Out of some 1,200 compounds screened, about 10 (0.8%) were called active. Another 4% or so got no clear call; they are omitted. Calls follow the shape of the dose curve; as a rule, active = well fitted inhibition curve with a large enough effect; inconclusive = small, poorly fitted or top-dose-only effect; inactive = no such curve, though single readings can be large or run the other way. The list shows a part of the results. % is scaled to controls: 0 for no effect and ±100 for the full control effect.", "data": [{"assay": "qHTS Assay to Find Inhibitors of Chronic Active B-Cell Receptor Signaling: Hit Validation in OCI-Ly3 Assay", "conditions": "OCI-Ly3 IkB-luciferase reporter, Chroma-Glo luminescence, 4 h; at 46.1 µM (top of the series)", "description": "Diffuse large B-cell lymphoma (DLBCL) is the most common category of non-Hodgkin lymphoma, with ~20,000 new cases per year in the United States. DLBCL should be regarded as a collection of different neoplasms. Microarray gene expression analysis has defined two principal types of DLBCL, named for their similarity to normal B cell stages or activation states: a germinal center B-cell (GCB) type, and an activated B-cell (ABC) type. In ABC-DLBCL, a constitutive high-level activity of the NF-kappaB family of transcription factors has been observed (1) and NF-kappaB target genes are more highly expressed in ABC primary tumors than in GCB tumors. Functional studies have shown a constitutive high-level activity of the IkappaB (inhibitor of kappa-B) kinase (IKK) complex. […] Further analysis of DLBCL primary tumors for NF-kappaB target gene expression imply that although CARD11 is required for constitutive IKK activity in all ABC-DLBCL lines, mutations in CARD11 may be the root cause of IKK activation only in lines or tumors with such mutations. In other words, CARD11 mutations may explain NF-kappaB activation in only 10% of ABC-DLBCL cases. […] This process has been termed 'chronic active BCR signaling' (CABS). The goal of this screen is to find small-molecule inhibitors of the CABS pathway found in ABC-DLBCL lines using a cell-based assay that measures IkappaBalpa stability, which has already been extensively validated in the OCI-Ly3 line (PubChem AID:445; REF: 4). […] Hits from the primary screen were tested in this selectivity secondary assay. NIH Molecular Libraries Probe Production Network [MLPCN] NIH Chemical Genomics Center [NCGC] MLPCN Grant: R03 DA031086 PI Name: Dr. R. Eric Davis\nCells were seeded in 1536-well plates at 5000 cells/3ul in IMDM medium containing 0.5% FBS, w/o phenol red, L-glutamine, 25 mM HEPES, 3 mg/ml sodium bicarbonate. After centrifugation for 1 min. at 1000 rpm, 23 nl of compounds or DMSO were delivered to each well using a pin tool. Then 1ul 80ng/ml doxycycline was dispensed into white solid 1536-well plates and the plates were incubated at 37C/5% C02 in a cell incubator for 4 hrs. Then 4 ul Chroma-Glo luminescent substrate mix (Promega) was added to each well. The plate was incubated at R.T. for 10-15 min. The plates were measured on a ViewLux plate reader for green luminescence (540/20 nm filter) and red luminescence (618/8 nm filter). The green and red luminescent signals were corrected for red and green luminescence filter overlap using previously determined filter calibration constants (determined using the procedure outlined in the Promega Technical Manual). The %Activity was determined from the ratio of corrected green/red luminescent values. Green luminescent and ratio %Activity was determined by normalizing to the difference in signal between basal cells (0% Activity) and cells incubated with 10 uM of the proteasome inhibitor MG-132 (100% Activity). Red luminescent %Activity was normalized to the difference between red luminesence in basal cells (0%Activity) and zero luminescence (-100% Activity). Concentration-response curves were fitted to the signals arising from the green luminescence (I-kappa-B-alpha-luciferase fusion; IkB-luc) and the red luminescence (unfused luciferase; luc) as well as the calculated ratio. The concentration-effect curves were then classified based on curve quality (r2), response magnitude and degree of measured activity. Compounds were then categorized based on their concentration-response curves for all three datasets (Ikb-luc, luc and ratio).", "values": [{"smiles": "COc1cc2c3cc1Oc1cc(ccc1O)C[C@@H]1c4c(cc(OC)c(O)c4Oc4ccc(cc4)C[C@H]3N(C)CC2)CCN1C", "activity change, negative = inhibition": "inactive: 1.05%"}, {"smiles": "CC(C)CCCn1c(O)c(/C=C2/C=CC=N2)c(=O)[nH]c1=O", "activity change, negative = inhibition": "inactive: -0.841%"}, {"smiles": "O=C(NC1CCCCC1)Oc1cc2oc(=O)sc2cc1Cl", "activity change, negative = inhibition": "inactive: -9.28%"}, {"smiles": "CCCCOCCCn1c(N)c(C(=O)OCCOC)c2nc3ccccc3nc21", "activity change, negative = inhibition": "inactive: -2.82%"}, {"smiles": "CCc1ccccc1N1C(=O)/C(=C/c2ccc(N3CCN(C)CC3)o2)C(=O)NC1=S", "activity change, negative = inhibition": "inactive: -0.121%"}, {"smiles": "COc1cc(C2c3cc4c(cc3CC3COC(=O)C32)OCO4)cc(OC)c1OC", "note": "(stereo unspecified)", "activity change, negative = inhibition": "inactive: -1.42%"}, {"smiles": "COc1cc(/C=C/[N+](=O)[O-])ccc1O", "activity change, negative = inhibition": "inactive: 0.135%"}, {"smiles": "CN(C)C(=S)SSC(=S)N(C)C", "activity change, negative = inhibition": "inactive: -12.9%"}, {"smiles": "CCCC[C@@H](C)C[C@@H](C)C(=O)N(C)[C@@H](CC(C)C)C(=O)N[C@H](C(=O)N(C)[C@H](C(=O)N1C[C@@H](O)C[C@H]1C(=O)N1C(=O)C=C[C@@H]1C)C(C)C)C(C)OC(C)=O", "note": "(stereo partly specified)", "activity change, negative = inhibition": "inactive: -0.338%"}, {"smiles": "CCNC(=O)[C@H]1O[C@@H](n2cnc3c(N)ncnc32)[C@H](O)[C@@H]1O", "activity change, negative = inhibition": "inactive: -1.68%"}, {"smiles": "C/C(=N\\N1CCCCC1)c1c(O)[nH]c(=O)[nH]c1=O", "activity change, negative = inhibition": "inactive: 0.0656%"}, {"smiles": "COc1ccc(C=C2C(=O)N(C)C(=O)N(C)C2=O)cc1COc1ccc(NC(C)=O)cc1", "activity change, negative = inhibition": "inactive: 0.249%"}, {"smiles": "CC[C@]12CC[C@H](O)CC1=CCC1C2CC[C@]2(C)C(=O)CCC12", "note": "(stereo partly specified)", "activity change, negative = inhibition": "inactive: -0.803%"}, {"smiles": "COc1ccc(Cc2nccc3cc(OC)c(OC)cc23)cc1OC", "activity change, negative = inhibition": "inactive: -0.352%"}, {"smiles": "O=C1C(=O)c2cccc3cccc1c23", "activity change, negative = inhibition": "inactive: -20.7%"}, {"smiles": "COc1ccc(-c2nn(CCC#N)cc2C(=O)Nc2ccc(C(C)=O)cc2)cc1[N+](=O)[O-]", "activity change, negative = inhibition": "inactive: -0.983%"}, {"smiles": "C#CCOc1cc(C2C3=C(COC3=O)Nc3cc4c(cc32)OCO4)ccc1OC", "note": "(stereo unspecified)", "activity change, negative = inhibition": "inactive: -2.5%"}, {"smiles": "CCC(=NCCC(c1ccccc1)c1ccccc1)c1c(O)[nH]c(=O)[nH]c1=O", "activity change, negative = inhibition": "inactive: -2.95%"}, {"smiles": "O=c1c2ccccc2[se]n1-c1ccccc1", "activity change, negative = inhibition": "inactive: 22.5%"}, {"smiles": "C=CC[C@@H](CC/C=C/C=C/CC/C=C\\[C@@H]1CSC([C@@H]2C[C@@H]2C)=N1)OC", "activity change, negative = inhibition": "inactive: -12.7%"}, {"smiles": "COc1cc2c(c(OC)c1OC)-c1ccc(O)cc1[C@@H](NC(C)=O)CC2", "activity change, negative = inhibition": "inactive: -3.18%"}, {"smiles": "CN1C(=O)CN=C(c2ccc(Cl)cc2)c2cc(Cl)ccc21", "activity change, negative = inhibition": "inactive: -3.48%"}, {"smiles": "COc1ccc(C(=O)Oc2cccc3cccnc23)cc1S(=O)(=O)N1CCOCC1", "activity change, negative = inhibition": "inactive: -0.414%"}, {"smiles": "COc1cc2c(c(OC)c1OC)-c1ccc(O)c(=O)cc1C(NC(C)=O)CC2", "note": "(stereo unspecified)", "activity change, negative = inhibition": "inactive: -3.84%"}, {"smiles": "Cc1cc(C)c(C(=O)CN2CCOCC2)c(C)c1", "activity change, negative = inhibition": "inactive: -0.639%"}, {"smiles": "O=c1c2ccccc2nc(/C=C/c2ccc([N+](=O)[O-])o2)n1-c1ccc(O)cc1", "activity change, negative = inhibition": "inactive: 69.1%"}]}]}
